Laboratory results as given in PubChem BioAssay AID504332 (National Center for Advancing Translational Sciences (NCATS), 2011).
About 31,000 (8.9%) of roughly 350,000 compounds were called active. The inconclusive results got no clear call from the source; some entries with a clear call stand among them for comparison. Calls follow the shape of the dose curve; as a rule, active = well fitted inhibition curve with a large enough effect; inconclusive = small, poorly fitted or top-dose-only effect; inactive = no such curve, though single readings can be large or run the other way. Where the call is inconclusive, the potency comes from a doubtful curve fit.

Target: Histone-lysine N-methyltransferase EHMT2 (Homo sapiens) (UniProt Q96KQ7)
UniProt Q96KQ7, sequence (Q96KQ7 whole entry, looked up): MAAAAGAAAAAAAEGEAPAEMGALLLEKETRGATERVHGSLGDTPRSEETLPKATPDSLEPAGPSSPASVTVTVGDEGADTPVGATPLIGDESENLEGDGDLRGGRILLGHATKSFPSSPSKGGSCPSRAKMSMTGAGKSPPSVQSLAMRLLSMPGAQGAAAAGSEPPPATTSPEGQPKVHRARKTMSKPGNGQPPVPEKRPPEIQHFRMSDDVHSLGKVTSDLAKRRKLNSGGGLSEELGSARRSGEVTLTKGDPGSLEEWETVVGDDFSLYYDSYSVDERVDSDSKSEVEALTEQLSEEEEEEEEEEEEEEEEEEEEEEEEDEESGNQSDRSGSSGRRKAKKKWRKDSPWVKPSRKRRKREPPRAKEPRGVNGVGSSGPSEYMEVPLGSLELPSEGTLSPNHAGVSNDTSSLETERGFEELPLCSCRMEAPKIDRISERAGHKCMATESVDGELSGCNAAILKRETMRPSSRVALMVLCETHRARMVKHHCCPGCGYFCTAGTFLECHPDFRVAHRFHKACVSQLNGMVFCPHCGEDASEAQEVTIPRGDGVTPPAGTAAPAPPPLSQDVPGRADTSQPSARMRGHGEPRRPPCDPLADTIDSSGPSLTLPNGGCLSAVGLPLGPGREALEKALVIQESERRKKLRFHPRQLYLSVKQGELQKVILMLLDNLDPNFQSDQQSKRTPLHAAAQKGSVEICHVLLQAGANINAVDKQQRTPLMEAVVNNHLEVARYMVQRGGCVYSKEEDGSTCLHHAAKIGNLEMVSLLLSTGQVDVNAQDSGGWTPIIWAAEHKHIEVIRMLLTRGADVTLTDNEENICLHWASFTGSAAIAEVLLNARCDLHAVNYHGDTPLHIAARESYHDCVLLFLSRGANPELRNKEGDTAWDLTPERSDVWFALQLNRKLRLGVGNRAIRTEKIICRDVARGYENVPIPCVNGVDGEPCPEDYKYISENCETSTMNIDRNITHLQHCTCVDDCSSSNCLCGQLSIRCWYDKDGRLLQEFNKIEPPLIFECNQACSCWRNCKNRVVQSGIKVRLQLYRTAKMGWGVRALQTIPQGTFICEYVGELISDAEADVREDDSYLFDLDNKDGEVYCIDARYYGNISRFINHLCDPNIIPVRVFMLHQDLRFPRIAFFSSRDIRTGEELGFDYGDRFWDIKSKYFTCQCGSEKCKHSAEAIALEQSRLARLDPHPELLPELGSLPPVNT
Experiment: qHTS Assay for Inhibitors of Histone Lysine Methyltransferase G9a; also: nearly all actives have a fitted effect of over 75% in size
Conditions: G9a H3K9 monomethylation, AlphaScreen, 2 h; activity, negative = inhibition: at 59 µM (top of the series) unless noted
In short: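 AlphaScreen detection with an anti-monomethyl H3K9 antibody quantified product after a 2 h room-temperature reaction containing 500 nM biotinylated H3K9 peptide, 20 µM SAM and 20 nM enzyme, which had been preincubated 15 min with compound.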
% is scaled to controls: 0 for no effect and ±100 for the full control effect; potency is read from the fitted curve at half-maximal effect; tags tell the direction and shape of the fitted curve.

| SMILES | Potency | activity, negative = inhibition |
| --- | --- | --- |
| O=c1[nH]cnc2cc(Cl)ccc12 | active: 50.1 µM | – |
| COC(=O)c1ccccc1NC(=O)c1ccc2c(c1)OCCO2 | – | inactive: 12% |
| COc1ccc(CN2C(=O)N(c3ccc(F)cc3)C(=O)C2CC(=O)Nc2cc(OC)cc(OC)c2)cc1 (centres undefined) | – | inactive: -35.5% |
| O=C1CN2CCC1C/C2=C\c1ccnc2c(Cl)cccc12 (centres undefined) | inconclusive: 89.1 µM [inhibitor, single point] | – |
| C#CCOc1ccc(/C=C2/C(=O)ON=C2C)cc1OCC | active: 39.8 µM | – |
| CCCN(CC1CC1)C(=S)NC(=O)c1ccccc1Br | – | inactive: -20% |
| CNc1ccc(/C=C/C(=O)c2ccc3c(c2)OCCO3)cc1[N+](=O)[O-] | active: 8.91 µM | – |
| O=C(O)c1cc(S(=O)(=O)NC2CCCc3ccccc32)ccc1O (centres undefined) | inconclusive: 89.1 µM [inhibitor, single point] | – |
| COC(=O)c1ccccc1NC(=S)NC(=O)c1ccc2c(c1)OCO2 | active: 39.8 µM | – |
| O=C(Nc1cccs1)NC1CCCC1 | active: 31.6 µM | – |
| Cc1cccc(NC(=O)c2sc3nc(-c4ccccc4)cn3c2C)c1C | – | inactive: 20.9% |
| Cc1ccccc1NC(=S)NC(NC(=O)c1ccco1)C(Cl)(Cl)Cl (centres undefined) | inconclusive: 39.8 µM [inhibitor, single point] | – |
| CCOC(=O)c1cnc(SCC(=O)Nc2ccc(N3CCOCC3)cc2)nc1N | active: 25.1 µM | – |
| CC(=O)Nc1ccc(NC(=O)C(C)Sc2nc3ccccc3c(=O)n2CC2CCCO2)cc1 (centres undefined) | inconclusive: 35.5 µM [inhibitor, single point] | – |
| O=C(NC(=S)Nc1ccc2c(c1)OCCO2)c1cccc2ccccc12 | active: 39.8 µM | – |
| CCOC(=O)c1[nH]c(C)c(/C(O)=C2\C(=O)C(=O)N(CCCn3ccnc3)C2c2ccncc2)c1C (centres undefined) | active: 50.1 µM | – |
| Cn1nc(-c2ccccc2)c(CSc2ccccc2)c1Cl | – | inactive: 13.7% [at 12.7 µM] |
| Cc1ccc(C)c(NC(=O)CSc2sc3c(O)cc(=O)[nH]c3c2C#N)c1 | – | inactive: -4.9% |
| CCN(CC)CC#Cc1ccc(C)cc1 | inconclusive: 44.7 µM [inhibitor, partial curve, poor fit] | – |
| COc1cccc(CNC(=S)Nc2cccc(Cl)c2C)c1 | – | inactive: 37.3% [at 102 µM] |
| CC1(C(=O)CSc2n[nH]c(-c3ccccc3Cl)n2)CCC(=O)O1 (centres undefined) | active: 10 µM | – |
| CCOCc1c(C(=O)N2CCN(CC(=O)Nc3ccc(F)cc3)CC2)oc2ccccc12 | inconclusive: 89.1 µM [inhibitor, partial curve, poor fit] | – |
| OCc1cnc(SCc2ccc(F)cc2)n1Cc1ccc(F)cc1 | – | inactive: 24.9% |
| COc1ccc(N(CC(=O)Nc2cccc(C(C)=O)c2)S(=O)(=O)c2ccccc2)c(OC)c1 | active: 3.16 µM | – |
